The whole screen tested about 410,000 compounds, of which about 6,400 (1.6%) were called active. Inconclusive results, whose numbers are uncertain, are shown with a selection of clear calls. Calls come from the whole dose curve; as a rule, active = well fitted inhibition curve with a large enough effect; inconclusive = small, poorly fitted or top-dose-only effect; inactive = no such curve, though single readings can be large or run the other way. Potencies of inconclusive entries are left out as doubtful fits.
What follows are compounds tested against Glucagon-like peptide 1 receptor (Homo sapiens) (UniProt P43220) (assay: qHTS of GLP-1 Receptor Inverse Agonists (Inhibition Mode)). Details: HEK293 GLP-1R CRE-luciferase, luminescence, 24 h, GLP-1R form is constitutively active; activity change, negative = inhibition: at 38.3 µM (top of the series) unless noted.
Outline: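 HEK293 cells stably co-expressing a cAMP-responsive luciferase reporter and constitutively active GLP-1R were seeded, incubated 12 h, then exposed to compounds for 24 h at 37 C. Luminescence was read 12 min after detection reagent; inverse agonists lower signal.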
% is set by controls: 0 for no effect and ±100 for the full control effect; potency is the fitted concentration of half-maximal effect; tags give direction and shape of the fitted curve.
Note: nearly all actives have a fitted effect of over 55% in size.

Sequence of UniProt P43220 (P43220 whole entry, looked up): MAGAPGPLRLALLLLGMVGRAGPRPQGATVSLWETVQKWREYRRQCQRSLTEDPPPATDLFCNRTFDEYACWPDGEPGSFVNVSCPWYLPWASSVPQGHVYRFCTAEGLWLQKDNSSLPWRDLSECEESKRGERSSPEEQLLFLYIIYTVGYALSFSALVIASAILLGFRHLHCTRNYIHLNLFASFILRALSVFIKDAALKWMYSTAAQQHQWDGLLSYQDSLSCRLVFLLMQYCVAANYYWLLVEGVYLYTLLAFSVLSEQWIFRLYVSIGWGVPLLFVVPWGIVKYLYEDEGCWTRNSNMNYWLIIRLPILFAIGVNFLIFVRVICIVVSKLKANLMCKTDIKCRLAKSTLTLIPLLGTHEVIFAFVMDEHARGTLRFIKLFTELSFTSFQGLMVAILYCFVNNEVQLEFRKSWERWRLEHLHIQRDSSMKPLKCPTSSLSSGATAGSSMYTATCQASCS

Compound | Potency | activity change, negative = inhibition
Cc1cc(C)cc(NC(=O)N2CCCN(Cc3c(F)cccc3Cl)CC2)c1 | inconclusive [inhibitor, single point] | 
COc1cc2c(cc1OC)C1=C(C#N)CCC(=NC(=O)c3ccc(Cl)cc3)N1CC2 |  | inactive: 190%
CCN1C=CC(=C2C(=O)c3ccccc3C2=O)C=C1 | inconclusive [inhibitor, full curve, poor fit] | 
COc1cc(C2NC(=S)NC3=C2CCc2ccccc23)cc(OC)c1OC (stereo unspecified) |  | inactive: -12.2%
COc1ccc(C2CC(c3ccc4ccccc4c3)=NN2C(=O)CN2C(=O)CCC2=O)cc1 (stereo unspecified) | inconclusive [inhibitor, partial curve] | 
Cn1c2c(c3ccccc31)CCN1CCC[C@]21c1ccccc1 | inconclusive [inhibitor, single point] | 
CCc1ccc(OCC(=O)NC(NC(=S)Nc2ccccc2C)C(Cl)(Cl)Cl)cc1 (stereo unspecified) | inconclusive [inhibitor, partial curve, poor fit] | 
COCCn1c(-c2ccccc2)cnc1SCC(=O)Nc1cccc2ccccc12 | inconclusive [inhibitor, partial curve] | 
NC(=S)N/N=C/c1ccc(-c2cc(Cl)c(Cl)cc2Cl)o1 | inconclusive [inhibitor, partial curve, poor fit] | 
O=C(Cn1cnc2c(nnn2Cc2ccc(F)cc2)c1=O)NCc1ccc2c(c1)OCO2 | inconclusive [inhibitor, partial curve, poor fit] | 
CCOc1ccccc1C(=O)NC1CC2CCCC(C1)N2Cc1nnnn1Cc1ccco1 (stereo unspecified) | inconclusive [inhibitor, full curve, poor fit] | 
CCN(CC)CCNc1nc(-c2ccc(OC(F)F)cc2)c(C)s1 | inconclusive [inhibitor, partial curve, poor fit] | 
O=C(N/N=C/c1c[nH]c2ccccc12)c1cccc(Cl)c1 | inconclusive [inhibitor, partial curve] | 
CCC(C)c1ccc(C(C)NC(=S)NC2CCCCC2)cc1 (stereo unspecified) | inconclusive [inhibitor, single point] | 
Cc1nc(-c2ccc(Cl)cc2)sc1C1(C)CC(c2ccccc2Br)=NO1 (stereo unspecified) |  | inactive: -24.1%
O=C(Nc1ccccc1O)c1csc2c1CCCC2 |  | inactive: -4.17% [at 0.307 µM]
CC(=O)c1ccc(-c2nnc(CCC(=O)N(C)Cc3cccc4cnccc34)o2)s1 |  | inactive: -12%
O=C(CCC(=O)N1CCOc2ccc(Cl)cc21)N1CCN(c2ccccn2)CC1 | inconclusive [inhibitor, single point] | 
COc1cccc(Cn2nnc(C(=O)Nc3cc(C)ccc3OC)c2N)c1 | inconclusive [inhibitor, full curve, poor fit] | 
Nc1ccccc1C(=O)Nc1cccc(C(=O)O)c1 | inconclusive [inhibitor, partial curve, poor fit] | 
Cc1ccc(NC(=O)CSc2nc(-c3ccccc3Cl)nc3cc(=O)[nH]n23)c(C)c1 |  | inactive: -15.5%
Cc1ccc(C2SCCN2C(=O)c2ccc([N+](=O)[O-])cc2)cc1 (stereo unspecified) | inconclusive [inhibitor, single point] | 

Compound | Potency | activity change, negative = inhibition
COC(=O)c1c(C)nn(-c2ccc(F)cc2)c1-n1cccc1 |  | inactive: 13.8%
CCN(CC)c1nc(OCCNC(=O)Nc2ccccc2)nc(N(CC)CC)n1 | active: 5.01 µM | 
COc1ccc(C)cc1NC(=O)C(Sc1nnc(Nc2ccccc2F)s1)c1ccccc1 (stereo unspecified) | inconclusive [inhibitor, partial curve] | 
CCc1cccc(Nc2ncnc3onc(-c4ccc(F)cc4)c23)c1 | inconclusive [inhibitor, partial curve, poor fit] | 
COc1ccc(C(=O)NC(=S)NNC(=O)c2ccc(C)cc2)cc1 | inconclusive [inhibitor, single point] | 
Cc1cccc(Nc2ncnc3c2cnn3Cc2ccccc2)c1 | inconclusive [inhibitor, single point] | 
CC(C)(C)c1ccc(C(=O)N2CCC(=O)N([C@H](COCc3ccccc3)Cc3ccccc3)CC2)cc1 | active: 10 µM | 
COc1ccc(C2CC(c3c(O)cc(C)oc3=O)=NCCS2)c(OC)c1 (stereo unspecified) | inconclusive [inhibitor, partial curve, poor fit] | 
Cc1cc(C)c(OCC(=O)N(Cc2cccc(F)c2)Cc2ccco2)c(C)c1 | inconclusive [inhibitor, partial curve, poor fit] | 
Cc1ccc(N(C(=O)CCl)C(C(=O)NC2CCCCC2)c2cccnc2)cc1C (stereo unspecified) | inconclusive [inhibitor, full curve, poor fit] | 
O=C(Nc1ccccc1)N1CCCN(c2nccc(C(F)(F)F)n2)CC1 | inconclusive [inhibitor, partial curve, poor fit] | 
CCCc1cc(NCCCCO)n2c(nc3ccccc32)c1C#N |  | inactive: 3.73%
CSc1ncc(Cl)c(C(=O)Nc2cccc(C)c2)n1 | inconclusive [inhibitor, partial curve] | 
CCOCCCNC(C(=O)Nc1ccc(OC)c(Cl)c1)c1ccccc1 (stereo unspecified) | inconclusive [inhibitor, partial curve, poor fit] | 
CCCCc1ccc(-c2csc(/C(C#N)=C/c3ccc(C)o3)n2)cc1 | inconclusive [inhibitor, single point] | 
O=C(NCc1ccco1)C(c1cccs1)N(Cc1ccccc1)C(=O)Cn1nnc2ccccc21 (stereo unspecified) | inconclusive [inhibitor, partial curve, poor fit] | 
O=C(O)CCNC(=O)c1cncc(Br)c1 |  | inactive: 25.7%
CCOC(=O)c1ccc(NS(=O)(=O)c2ccc3[nH]c4c(c3c2)CCCCC4)cc1 | inconclusive [inhibitor, single point] | 
OCCNc1c2ccccc2nc2ccccc12 | inconclusive [inhibitor, partial curve, poor fit] | 
Nc1ccccc1SCc1ccccc1 |  | inactive: -18.1%
O=C(Cn1cc(C(F)(F)F)ccc1=O)N/N=C/c1ccc(Cl)c(Cl)c1 | inconclusive [inhibitor, single point] | 
O=C(Nc1ccc(Br)cc1)c1ccccc1Br | inconclusive [inhibitor, single point] | 

Compound | Potency | activity change, negative = inhibition
Cc1onc(-c2ccccc2)c1C(=O)Nc1nnc(N2CCCCCC2)s1 | inconclusive [inhibitor, partial curve, poor fit] | 
O=C(Cn1nnc(-c2cccs2)n1)N1c2ccccc2Sc2ccc(C(F)(F)F)cc21 | inconclusive [inhibitor, partial curve, poor fit] | 
Cc1ccccc1NC(=O)C1CCN(S(=O)(=O)c2ccc3c(c2)NC(=O)C(C)S3)CC1 (stereo unspecified) | inconclusive [inhibitor, partial curve, poor fit] | 
CCOC(=O)C1=CC[C@@H](c2ccccc2)N(S(=O)(=O)c2ccc(C)cc2)[C@H]1c1cccc(OC)c1 | inconclusive [inhibitor, single point] | 
CN(CC(=O)Nc1ccc(S(=O)(=O)N2CCCC2)cc1)CC(=O)Nc1cccc(F)c1 | inconclusive [inhibitor, single point] | 
COc1ccc(Oc2nc(-c3ccccn3)ncc2OC)cc1 | inconclusive [inhibitor, single point] | 
CC(O)(c1cccc(F)c1)c1nc(-c2ccncc2)cs1 (stereo unspecified) | inconclusive [inhibitor, single point] | 
Cc1cc(C)n2nc(-c3sccc3-n3c(C)ccc3C)cc2n1 | inconclusive [inhibitor, single point] | 
Nc1nc(N)nc(-c2cccc(Cl)c2Cl)n1 |  | inactive: 19.5%
COc1ccc(CNc2oc(-c3ccc(COc4ccc(OC)cc4)o3)nc2C#N)cc1 | inconclusive [inhibitor, single point] | 
O=C(Nc1nc(-c2ccccn2)cs1)c1ccc(Cl)s1 | inconclusive [inhibitor, full curve, poor fit] | 
Cc1ccc(CNS(=O)(=O)c2ccc3c(c2)NC(=O)CS3)cc1 |  | inactive: 9.99%
O=C(Cc1ccc([N+](=O)[O-])cc1)N/N=C/c1ccc([N+](=O)[O-])o1 |  | inactive: -6.67%
CCc1cccc(OCC(=O)Nc2ccccc2N2CCCC2)c1 | inconclusive [inhibitor, single point] | 
COC(=O)c1oc2ccccc2c1N |  | inactive: 31.3%
COc1ccc(N(C(=O)c2cccnc2)S(=O)(=O)c2cc(OC)ccc2OC)cc1 | inconclusive [inhibitor, single point] | 
O=C(/C=C/c1ccccc1[N+](=O)[O-])Nc1cccc(S(=O)(=O)NC2=NCCCCC2)c1 |  | inactive: -17.3%
CCOc1ccc(NC(=O)CN2C(=O)C3(SCC(=O)N3c3ccc(F)cc3)c3ccccc32)cc1 (stereo unspecified) |  | inactive: -16.7%
Fc1ccc(F)c(C2=NNC(=Nc3ccccc3F)SC2)c1 | inconclusive [inhibitor, partial curve, poor fit] | 
CCN1C(=O)C(Cc2nc3ccccc3c(=O)n2-c2ccccc2)c2cc(Br)ccc21 (stereo unspecified) |  | inactive: -24.5%
COc1ccc(-c2noc(C3CCCN(C(=O)c4cccc(F)c4)C3)n2)cc1 (stereo unspecified) | inconclusive [inhibitor, partial curve, poor fit] | 
Fc1ccc(Cn2c(SCc3ccc(F)c(F)c3)nnc2C(F)(F)F)cc1 | inconclusive [inhibitor, single point] | 
